In all, about 13,000 compounds were measured (“IFI”: median about 4, highest 2% from about 17 on). Some of the results follow. Non-standard residues stand in square brackets, D forms with d. Residues, ends and D or L forms follow the SMILES beside them. *: point of attachment. Butanoyl(4-(4-HOPh)) = O=C(CCCc1ccc(O)cc1)*
test: GSK_TCMDC: Inhibition Frequency Index (IFI). The number of non-kinase HTS assays where a compound showed > 50 % inhibition, expressed as a percentage of the number of such assays in which the compound was tested (-0 is zero); assay type: functional

SMILES	IFI
S=c1nc(-c2ccccc2)n2ccsc2n1	0%
CCOc1cc(C(=O)N[C@@H](Cc2ccccc2)[C@H](O)CNC(C)(C)c2cccc(OC)c2)cc(N2CCCS2(=O)=O)c1	2.11%
CC(C)(C)c1cc([N+](=O)[O-])cc(C(=O)Nc2ccccc2C(F)(F)F)c1O	22.7%
CN(C)C(C)(C)CN(Cc1ccc(-c2ccc(C(F)(F)F)cc2)cc1)C(=O)Cn1c(CCc2cccc(F)c2F)nc(=O)c2ccccc21	8.45%
CC[C@H]1CN(Cc2ccco2)CC[C@H]1CCCc1ccnc2ccc(O)cc12	4.93%
C[C@H](N[C@H]1CCCc2c1[nH]c1ccc(Br)cc21)c1ccccc1	11.4%
O=C(NC1CCN(Cc2ccccc2)C1)c1ccc(Nc2ccc(Br)cc2)nc1 (stereo not given)	3.57%
COc1ccc(Cn2c(N3CCN(S(=O)(=O)c4ccc(OC)cc4)CC3)nc3c2c(=O)n(CC2CC2)c(=O)n3CC2CC2)cc1	0.76%
O=[N+]([O-])c1cccc(-c2ccc(C=NNc3cc(N4CCCC4)nc(N4CCCC4)n3)o2)c1	0.75%
CC(C)(C)COc1ccc2c(N)n[nH]c2c1	3.45%
CNC(=O)c1cc(S(=O)(=O)N2CCN(c3ccccn3)CC2)cs1	-0%
Cc1n[nH]c2ccc(-c3ccc4nccc(N5CCC(N)CC5)c4c3)cc12	10.8%
CCc1cccc(NC(=O)/C=C/c2ccc3c(c2)CN(C)CC3)c1	0%
[O-][s+]1c(Cl)c(-c2ccc(Cl)cc2)c2ccc(Cl)cc21 (stereo not given)	6.25%
CCc1nc(N)nc(N)c1-c1ccc(F)cc1	2.14%
CCN(CC)C(=S)N/N=C1/C(=O)Nc2c(C)cccc21	4.41%
CCc1ccc(C2=Nn3c(nnc3-c3cccs3)SC2)cc1	5.71%
N#Cc1ccc(N(CCOc2ccc(Cl)cc2)Cc2ccccc2C(F)(F)F)cc1C(F)(F)F	-0%
O=C(Nc1ccc(-c2cccc(-c3nc4cc(C(F)(F)F)ccc4[nH]3)c2)cc1)Nc1ccc(F)c(F)c1F	5.83%
O=C(Nc1cc(Cl)ccc1Cl)N[C@H]1CCN(CCCCCNC(=O)C2CC2c2ccc(Cl)c(Cl)c2)C1 (stereo not given in full)	10.5%
CC(C)COc1ccc(Cl)cc1Cc1nc(-c2nc3ccc(CN4CCCCC4)cc3[nH]2)co1	18.3%
O=C(Nc1ccc(Cl)c(Cl)c1)Nc1cc(C(F)(F)F)ccc1Cl	5.71%
O=C(N[C@H]1CCN(Cc2ccc(OCCN3CCNCC3)c3ccccc23)C1)c1ccc(Cl)c(Cl)c1	9.68%

SMILES	IFI
O=C1COC2(CN1C1CCN(Cc3ccc(O)cc3Cl)C1)c1ccccc1-c1ccccc12 (stereo not given)	8.53%
COC(=O)C(NC(=O)c1ccc(-c2ccc(-c3nc4ccccc4[nH]3)s2)cc1)c1ccc(O)cc1 (stereo not given)	10.7%
COc1ccc(CN(C)CCCOc2ccc(NC(=O)C=Cc3ccc(C(C)(C)C)cc3)cc2)cc1OC	9.57%
CC(C)(C)c1ccc(NC(=O)Nc2ccc(Cn3ncc(N4CCCNCC4)c(Cl)c3=O)cc2)cc1	11.8%
Cn1cc(C(=O)Nc2cccc(-c3cccc(-c4nc5cc(F)ccc5[nH]4)c3)c2)n(C)c1=O	3.7%
CN1CCCC(CN2CCN(Cc3cccc(-c4ccc(-c5nc6cc(C(F)(F)F)ccc6[nH]5)cc4)c3)CC2)C1 (stereo not given)	12.5%
FC(F)(F)c1ccc(-c2ccc(CNC3CCN(CCN4CCOCC4)CC3)cc2)cc1	6.29%
COc1ccc(CN(C)CCCOc2ccc(NC(=O)c3cccc4c(=O)c5cccc(F)c5[nH]c34)cc2)cc1OC	5.31%
CCC1CN(S(=O)(=O)c2ccc3c(c2)NC(=O)CC(=O)N3)c2cc(Cl)ccc2O1 (stereo not given)	1.43%
Cc1cc(N[C@@H](Cc2ccccc2)C(=O)NCCOc2ccccc2)nc(NCCc2ccccn2)n1	4.55%
CCCCNC(=O)c1cc(CNC2CCCCC2)ccc1-c1cccc(CNCc2ccc(-c3ccccc3)cc2)c1	11.5%
CCN(CCO)CCc1cccc(Nc2nccc(-c3c(-c4ccc(NC(=O)N(CC)CC)cc4)nn4ccccc34)n2)c1	-0%
COc1ccc(-c2ccc(NC(=O)c3ccc(C#N)cc3)cc2)cc1CN(C)CCN(C)C	3.96%
COc1nc2c(CCN3CCC(NCc4ccc5c(c4)NCCO5)CC3)c(Cl)cnc2cc1F	9.03%
O=C(NCC(=O)N1CCC[C@H]1C(=O)O)[C@@H](Cc1ccccc1)NC(=O)[C@@H]1CCCN1C(=O)CCCc1ccc(O)cc1 ({Butanoyl(4-(4-HOPh))}-P[dF]GP-OH)	0.75%
CCC(=O)Oc1ccc(NC(=O)c2cccc(OC)c2)cc1	1.42%
Cc1cc(Nc2cccc(C(F)(F)F)c2)nc(NCc2ccccc2)n1	10.2%
COc1ccc(CCN(C)CCOc2ccc(NC(=O)c3cccc4cc5ccccc5nc34)cc2)cc1OC	6.67%
COc1cccc(NC(=O)c2cc([N+](=O)[O-])ccc2NC(=O)CN2CCc3ccccc3C2)c1	3.65%
CCn1cc(C=C2Oc3c(ccc(O)c3CN3CCCCC3)C2=O)c2ccccc21	5.26%
COCCCNC(=O)C1CCN(C(c2ccc(Cl)cc2)c2ccc(Cl)cc2)CC1	2.13%
O=C(NC1CCN(CC2(c3ccccc3F)CCCC2)CC1)c1cc[nH]n1	-0%
O=C(Nc1ccc(-c2cccc(-c3nc4ccccc4[nH]3)c2)cc1)Nc1ccc(F)c(F)c1F	3.96%

SMILES	IFI
O=C(CN1CCC(NCc2cnc(-c3ccc(Cl)cc3)[nH]2)CC1)N1CCc2ccccc21	0.88%
C#CC[C@@H](NC(N)=O)C(=O)O	0%
COc1ccc(COc2c(OC)cc(Cc3cnc(N)nc3N)cc2OC)cc1	0.71%
COc1cc(NC(=O)c2cccs2)c(OC)cc1NC(=O)Nc1cccc(Cl)c1	9.68%
Cc1[nH]cc(Br)c(=O)c1-c1ccc(Oc2ccc(OC(F)(F)F)cc2)cc1	4.5%
O=C(Nc1ccccc1)N(Cc1ccc(-c2cccc(CNCc3ccc4c(c3)OCO4)c2)cc1)C1CCN(Cc2ccccc2)CC1	7.25%
CCN(CC)/C(=N/C(=N)NCc1ccc(Cl)cc1Cl)NCCCCCCN/C(=N\C(=N)NCc1ccc(Cl)cc1Cl)N(CC)CC	14.6%
O=[N+]([O-])c1ccccc1C=NN=c1cc[nH]c2ccccc12	1.48%
CC1(C)NC(N)=NC(=N)N1OCCCc1cc(Cl)c(Cl)cc1Cl	7.09%
Clc1ccc2c(NCCNc3ccnc4cc(Cl)ccc34)ccnc2c1	0.74%
Oc1ccc2ccccc2c1CNCCC1CCCCC1	2.96%
O=C(NCC1CCCCC1)c1cc(=O)c2ccccc2o1	0%
O=C(Nc1ccc(Cl)cc1)c1cc(Cl)ccc1NC(=O)C1CCc2ccccc2O1 (stereo not given)	-0%
Fc1ccc2[nH]c(-c3ccc(-c4ccc(CN5CCC(CCN6CCCCC6)CC5)cc4)cc3)nc2c1	8.22%
O=C(Nc1cccc(Cl)c1Cl)N1CCc2cc3nccc(N4CCN5CCC[C@H]5C4)c3cc21	4.93%
Nc1ccc(-c2nc3cc(-c4ccc5[nH]c(-c6ccc(N)cc6)nc5c4)ccc3[nH]2)cc1	7.25%
O=c1cc(NCCCNC2CCc3ccc(Cl)cc32)[nH]c2ccccc12 (stereo not given)	5.15%
COc1ccc2nccc([C@@H](O)CN3CCC(NCC4COc5ccccc5O4)CC3)c2c1 (stereo not given in full)	-0%
COc1ccccc1N1CCN(Cc2cc(C(C)C)c(C)cc2O)CC1	1.72%
Cn1c(N)cc(-c2ccc(Br)cc2)c2c(=O)nc(N)nc1-2	1.54%
Cc1c(O)cccc1Nc1ccnc2ccc(C(F)(F)F)cc12	2.29%
COc1ccc(Cn2c(Nc3cccc(C(F)(F)F)c3)nc3cc(C(=O)NC(C)C)cnc32)cc1Cl	3.73%
Cn1ccc(C(=O)Nc2ccc3c(c2)CN(Cc2ccc(N4CCCC4)o2)CCC3)n1	0%

SMILES	IFI
Oc1ccc(CCNc2nc(NCCCOc3cc(CN4CCCCC4)ccc3F)nc(N3CCNCC3)n2)cc1	7.69%
COc1ccc(F)cc1-c1ccccc1CNC(=O)c1cnn(-c2ccc([N+](=O)[O-])cc2)c1C(F)(F)F	-0%
CC(C(=O)N1CCCC1)N1CCN(S(=O)(=O)c2ccc(C(C)(C)C)cc2)CC1 (stereo not given)	2.04%
O=C(O[C@@H]1CN[C@H](C#Cc2cc3c(Nc4ccc5c(cnn5Cc5ccccc5)c4)ncnc3s2)C1)N1CCCC1	1.46%
CCCCOC(=O)[C@H](CCC)NC(=O)c1ccc(NS(=O)(=O)c2ccc3nc(N)[nH]c(=O)c3c2)cc1	2.14%
CC1CCCN1Cc1cccc(-c2ccc(C(=O)NCCOc3ccccc3)s2)c1 (stereo not given)	5.32%
Cc1nnsc1C(=O)Nc1cccc(-c2ccc(-c3nc4ccccc4[nH]3)s2)c1	5.45%
O=C(NCCCCCN1CCCN(C(=O)Nc2ccc(F)c(C(F)(F)F)c2)CC1)C1CC1c1ccc(Cl)c(Cl)c1 (stereo not given)	16.7%
O=C(Nc1cccc(CN2CCCN(Cc3ccc4c(c3)OCO4)CC2)c1)c1cc2ccccc2s1	9.92%
O=C1COC(c2ccccc2)(c2ccccc2)CN1CC1CCN(Cc2ccc(O)cc2Cl)C1 (stereo not given)	7.32%
CCOc1ccc(CCC(=O)O)cc1OCC	1.45%
O=C(Nc1ccc2c(c1)CCC2)c1ccc(N2CCN(c3ccncc3)CC2)cc1	2.86%
O=C(Nc1cccc(-c2ccc(-c3nc4cc(C(F)(F)F)ccc4[nH]3)s2)c1)c1cccnc1	4.59%
O=C(NCCc1cccc(Cl)c1Cl)c1ccc(N2CCN(c3ccncc3)CC2)nc1	10.4%
O=C(C=Cc1ccc(Cl)c(Cl)c1)NCCCCCN1CCC(CCNC(=O)C(c2ccccc2)c2ccccc2)CC1	9.56%
CCCCCCC(C)c1cc(O)c2c(c1)OC(=O)CC2(CC)c1ccccn1 (stereo not given)	0.73%
CC(C)N1CCN(CCCCNc2c3ccccc3nc3ccccc23)CC1	2.99%
O=C(/C=C/c1ccc(Cl)c(Cl)c1)NCCCCCN1CCCN(C(=O)Nc2ccc([N+](=O)[O-])cc2)CC1	4.73%
CC1(C)NC(N)=NC(=N)N1OCCc1cccc2ccccc12	5%
N=C(N)NN=CC(=O)Nc1ccc(Cl)c(Cl)c1	0.74%
Cc1ccc(NC(=O)N2CCCN(CCCCCNC(=O)/C=C/c3ccc(Cl)c(Cl)c3)CC2)cc1	2.68%
